The other results are listed elsewhere or left out. Single values of this set are uncertain.
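Note: stains mark DNA, RNA and nucleoli, ER, actin, Golgi, plasma membrane and mitochondria, read by high-content imaging, with DMSO controls at matching solvent concentration.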

One test has as its system U2OS. Put plainly: Cell Painting induction (percent of morphological features significantly changed vs DMSO); higher = stronger morphological change. To be noted: 10 µM; 20 h; run: confirmation repeat. The protocol:
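Cell Painting assay in U2OS cells: compounds at 10 µM for 20 h, six dyes, 579 robust CellProfiler features as Z-scores vs DMSO median (MAD). Induction is the % of significantly changed features (active if ≥5%); relative cell count is in % of DMSO. The primary run holds DCM compounds preselected for induction ≥10%; the confirmation repeat defines active compounds (370 of 549). Replicate agreement is low, attributed to precipitation.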
For `Cc1ccc(CNC(=O)c2cnn3c(C(F)(F)F)cc(-c4ccccc4)nc23)cc1`, the “Cell Painting induction” value is active: 17.3%.
For the compound `CCOC(=O)c1sc(NC(=O)CCN2C(=O)c3ccccc3C2=O)c(C(=O)OCC)c1C`, the “Cell Painting induction” value was inactive: 1.6%.
`COc1ccc(N2CCN(S(=O)(=O)CCNC(=O)C34CC5CC(CC(C5)C3)C4)CC2)cc1`: the “Cell Painting induction” value was active: 14.2%.
With `CC(=O)c1c(N2CCN(c3ccc(F)cc3)CC2)nc(=S)n(Cc2ccccc2)c1C`, the “Cell Painting induction” value was inactive: 1.9%.
Still for that read-out and setting: under `Fc1ccccc1/C=C1\CCCC2=C1Nc1nnnn1C2c1ccccc1F` (centres undefined) stands active: 29.7%; under `CCOc1ccc(N2C(=O)C3=C(C(c4ccc(Cl)cc4)=NCCN3)C2c2cccnc2)cc1` (centres undefined), active: 29.5%; under `CCOc1ccc(NC(=O)C(=O)NCCN2CCN(S(=O)(=O)c3ccc(C)cc3)CC2)cc1`, inactive: 0.2%.
`Cc1nn2c(N3CCOCC3)cc(C(C)(C)C)nc2c1-c1ccc(Cl)cc1`: the “Cell Painting induction” value was inactive: 0.7%.
Still for that read-out and setting: for `COc1cc(NC(=O)c2cnc(NCc3ccccc3)nc2C)cc(OC)c1OC` the value was active: 12.1%; for `CC(C)NC(=O)c1ccc2c(c1)N(Cc1c(F)cccc1Cl)C(=O)c1ccccc1S2`, active: 6.4%; for `O=C(c1ccccc1)c1ccc(N2CCN(C(=O)c3cccc(F)c3F)CC2)c(F)c1`, active: 9.3%.
Consider `Cc1ccc(C)c(N2CCN(CCCNC(=O)CCn3c(=O)c4cccn4c4cccnc43)CC2)c1`, for which the “Cell Painting induction” value was active: 29%.
Regarding `CCOc1ccc(-n2c(C)nc3c(cnn3-c3ccc(Cl)cc3)c2=O)cc1`, the “Cell Painting induction” value is inactive: 0.2%.
With `COc1ccc(-n2nc(C(=O)NCC(=O)N3CCN(c4ccccn4)CC3)c3ccccc3c2=O)cc1Cl`, the “Cell Painting induction” value was inactive: 0.7%.
The same measure, in the same setting: for `COC(=O)c1cc(S(=O)(=O)NCC2CCN(CCc3ccc(OC)cc3)CC2)cn1C` the value was active: 16.8%; for `COc1ccccc1NC(=O)COc1ccc(-c2nn(C)c(=O)c3ccccc23)cc1`, inactive: 0.2%; for `Cn1nc(C(=O)NCc2cccc(Cl)c2)c2c1-c1ccccc1S(=O)(=O)C2`, active: 9.2%.
On to `Cc1ccccc1S(=O)(=O)Cc1ccc(C(=O)NCCN(Cc2ccccc2)C(C)C)o1`, for which the “Cell Painting induction” value is inactive: 0.3%.
Take `COc1ccc(Cn2c(=O)[nH]c3cc(C(=O)N4CCN(c5ccccc5OC)CC4)ccc3c2=O)cc1`: the “Cell Painting induction” value is active: 32.1%.
Regarding `Cc1ccc(Sc2cc(C(=O)NCCN(C)C)c3ccccc3n2)cc1`, the “Cell Painting induction” value was active: 28.8%.
In the case of `CCC(=O)N1CCc2cc(S(=O)(=O)N3CCN(c4cccc(C)c4)C(C)C3)ccc21` (centres undefined), the “Cell Painting induction” value was inactive: 1.9%.
On the same count and under the same terms, under `O=C(CCCCn1c(=O)c2ccccc2n(Cc2ccc(Cl)cc2)c1=O)NCc1ccco1` stands active: 43.9%.
Same read-out and setting: under `CC(=O)c1ccc(N2CCN(S(=O)(=O)c3cc(-c4cc(C)no4)ccc3C(C)C)CC2)cc1` stands active: 49.2%.
On to `Cc1ccc(N(Cc2ccc(C(=O)Nc3cc(Cl)ccc3C)cc2)S(C)(=O)=O)cc1C`, for which the “Cell Painting induction” value was active: 5.4%.
Same read-out and setting: under `CCN(CC)CCCNC(=O)C1CCC(CNS(=O)(=O)c2c(C)cc(C)cc2C)CC1` (centres undefined) stands active: 32%.
`COc1ccc(NC(=O)CCCn2c(=O)c3sccc3n(Cc3ccc(C)cc3C)c2=O)cc1`: the “Cell Painting induction” value is active: 34%.
On the same count and under the same terms, for `CCOC(=O)c1cnc2c(C)cccc2c1Nc1ccc(N2CCOCC2)cc1` the value was inactive: 4.5%.
Same read-out and setting: for `COc1nnc(-c2ccc(N3CCCCC3)c(NC(=O)COc3ccccc3)c2)c2ccccc12` the value was inactive: 1.6%; for `Cc1ccc2nc(Nc3nc(C)c(CCC(C)C)c(O)n3)nc(C)c2c1`, inactive: 3.8%.
`COc1ccccc1C(=O)Nc1ccc2c(c1)nc(CN1CCCCC1)n2C`: the “Cell Painting induction” value is active: 5.4%.
On to `CCN(CC)CCNC(=O)COc1ccc(Cl)cc1Cl`, for which the “Cell Painting induction” value was active: 17.8%.
As for `CCCCN(CC)S(=O)(=O)c1ccc(F)c(C(=O)Nc2cccc(C)c2C)c1`, the “Cell Painting induction” value is active: 9.3%.
For `Cc1c2cnn(CC(=O)NCCCN3CC(C)CC(C)C3)c(=O)c2c(C)n1Cc1ccc(Cl)cc1` (centres undefined), the “Cell Painting induction” value was active: 51.5%.
On the same count and under the same terms, under `Cc1ccc(NC(=O)Cn2cc(S(=O)(=O)c3ccccc3)c(=O)c3cc(F)ccc32)cc1` stands active: 47.3%; under `CCN(CC)c1ccc(NC(=O)CN2CCN(CC(=O)Nc3ccc(OC)cc3)CC2)cc1`, active: 28%.
Still for that read-out and setting: for `CN1CCN(c2ccccc2NC(=O)Cn2ncc3c([nH]c4ccccc43)c2=O)CC1` the value was active: 37.8%.
On the same count and under the same terms, for `CCN(CC)CCN1C(=O)[C@@H]2C(C(=O)Nc3cccc(SC)c3)[C@@H]3C=C[C@]2(O3)C1C(=O)NC1CCCC(C)C1C` (some centres undefined) the value was active: 58.5%.

Staying with this test, now noted: 10 µM; 20 h; run: primary screen (compounds selected for induction >=10%).
As to `Cc1ccc(CNC(=O)c2cnn3c(C(F)(F)F)cc(-c4ccccc4)nc23)cc1`, the “Cell Painting induction” value worked out at 18%.
Regarding `CCOC(=O)c1sc(NC(=O)CCN2C(=O)c3ccccc3C2=O)c(C(=O)OCC)c1C`, the “Cell Painting induction” value was 16.9%.
Still for that read-out and setting: under `COc1ccc(N2CCN(S(=O)(=O)CCNC(=O)C34CC5CC(CC(C5)C3)C4)CC2)cc1` stands 17.3%; under `CC(=O)c1c(N2CCN(c3ccc(F)cc3)CC2)nc(=S)n(Cc2ccccc2)c1C`, 10.4%; under `Fc1ccccc1/C=C1\CCCC2=C1Nc1nnnn1C2c1ccccc1F` (centres undefined), 11.2%.
On the same count and under the same terms, for `CCOc1ccc(N2C(=O)C3=C(C(c4ccc(Cl)cc4)=NCCN3)C2c2cccnc2)cc1` (centres undefined) the value was 26.1%; for `CCOc1ccc(NC(=O)C(=O)NCCN2CCN(S(=O)(=O)c3ccc(C)cc3)CC2)cc1`, 30.9%; for `Cc1nn2c(N3CCOCC3)cc(C(C)(C)C)nc2c1-c1ccc(Cl)cc1`, 16.8%.
Same read-out and setting: under `COc1cc(NC(=O)c2cnc(NCc3ccccc3)nc2C)cc(OC)c1OC` stands 10.7%; under `CC(C)NC(=O)c1ccc2c(c1)N(Cc1c(F)cccc1Cl)C(=O)c1ccccc1S2`, 19.2%.
As to `O=C(c1ccccc1)c1ccc(N2CCN(C(=O)c3cccc(F)c3F)CC2)c(F)c1`, the “Cell Painting induction” value was determined as 11.9%.
As to `Cc1ccc(C)c(N2CCN(CCCNC(=O)CCn3c(=O)c4cccn4c4cccnc43)CC2)c1`, the “Cell Painting induction” value stood at 24.7%.
Same read-out and setting: for `CCOc1ccc(-n2c(C)nc3c(cnn3-c3ccc(Cl)cc3)c2=O)cc1` the value was 12.6%.
Take `COc1ccc(-n2nc(C(=O)NCC(=O)N3CCN(c4ccccn4)CC3)c3ccccc3c2=O)cc1Cl`: the “Cell Painting induction” value came out at 21.4%.
`COC(=O)c1cc(S(=O)(=O)NCC2CCN(CCc3ccc(OC)cc3)CC2)cn1C`: the “Cell Painting induction” value was found to be 16.2%.
For `COc1ccccc1NC(=O)COc1ccc(-c2nn(C)c(=O)c3ccccc23)cc1`, the “Cell Painting induction” value turned out to be 10.2%.
For `Cn1nc(C(=O)NCc2cccc(Cl)c2)c2c1-c1ccccc1S(=O)(=O)C2`, the “Cell Painting induction” value came out at 27.5%.
In the case of `Cc1ccccc1S(=O)(=O)Cc1ccc(C(=O)NCCN(Cc2ccccc2)C(C)C)o1`, the “Cell Painting induction” value was 10.7%.
The same measure, in the same setting: for `COc1ccc(Cn2c(=O)[nH]c3cc(C(=O)N4CCN(c5ccccc5OC)CC4)ccc3c2=O)cc1` the value was 43.4%; for `Cc1ccc(Sc2cc(C(=O)NCCN(C)C)c3ccccc3n2)cc1`, 41.1%; for `CCC(=O)N1CCc2cc(S(=O)(=O)N3CCN(c4cccc(C)c4)C(C)C3)ccc21` (centres undefined), 10.7%.
Consider `O=C(CCCCn1c(=O)c2ccccc2n(Cc2ccc(Cl)cc2)c1=O)NCc1ccco1`, for which the “Cell Painting induction” value worked out at 59.6%.
Same read-out and setting: for `CC(=O)c1ccc(N2CCN(S(=O)(=O)c3cc(-c4cc(C)no4)ccc3C(C)C)CC2)cc1` the value was 28.8%; for `Cc1ccc(N(Cc2ccc(C(=O)Nc3cc(Cl)ccc3C)cc2)S(C)(=O)=O)cc1C`, 20.6%; for `CCN(CC)CCCNC(=O)C1CCC(CNS(=O)(=O)c2c(C)cc(C)cc2C)CC1` (centres undefined), 30.1%.
In the case of `COc1ccc(NC(=O)CCCn2c(=O)c3sccc3n(Cc3ccc(C)cc3C)c2=O)cc1`, the “Cell Painting induction” value turned out to be 33.3%.
Regarding `CCOC(=O)c1cnc2c(C)cccc2c1Nc1ccc(N2CCOCC2)cc1`, the “Cell Painting induction” value stood at 10%.
On the same count and under the same terms, for `COc1nnc(-c2ccc(N3CCCCC3)c(NC(=O)COc3ccccc3)c2)c2ccccc12` the value was 17.8%.
In the case of `Cc1ccc2nc(Nc3nc(C)c(CCC(C)C)c(O)n3)nc(C)c2c1`, the “Cell Painting induction” value worked out at 49.7%.
For `COc1ccccc1C(=O)Nc1ccc2c(c1)nc(CN1CCCCC1)n2C`, the “Cell Painting induction” value was found to be 11.7%.
Take `CCN(CC)CCNC(=O)COc1ccc(Cl)cc1Cl`: the “Cell Painting induction” value came to 16.4%.
Still for that read-out and setting: under `CCCCN(CC)S(=O)(=O)c1ccc(F)c(C(=O)Nc2cccc(C)c2C)c1` stands 19%; under `Cc1c2cnn(CC(=O)NCCCN3CC(C)CC(C)C3)c(=O)c2c(C)n1Cc1ccc(Cl)cc1` (centres undefined), 54.6%.
The same measure, in the same setting: under `Cc1ccc(NC(=O)Cn2cc(S(=O)(=O)c3ccccc3)c(=O)c3cc(F)ccc32)cc1` stands 19.5%; under `CCN(CC)c1ccc(NC(=O)CN2CCN(CC(=O)Nc3ccc(OC)cc3)CC2)cc1`, 35.8%; under `CN1CCN(c2ccccc2NC(=O)Cn2ncc3c([nH]c4ccccc43)c2=O)CC1`, 37.7%.
On to `CCN(CC)CCN1C(=O)[C@@H]2C(C(=O)Nc3cccc(SC)c3)[C@@H]3C=C[C@]2(O3)C1C(=O)NC1CCCC(C)C1C` (some centres undefined), for which the “Cell Painting induction” value came out at 56%.

The values above are taken from the supplement of paper PMC11181314.
